The record followed here is publication PMC5892938.

The other results are listed elsewhere or left out. At the low end of the ranking the order means little.

This test addresses GST-SBP-SLBP (stem-loop binding protein) (UniProt Q14493). Description: targeted RNA Bind-n-Seq.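 Note: DESeq read counts versus GST-SBP nonspecific binding control pulldown.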 Particulars: RBNS binding buffer: 25 mM Tris pH 7.5, 150 mM KCl, 3 mM MgCl2, 0.1% Tween, 0.5 mg/mL BSA, 1 mM DTT; 27 nM protein, 750 pM RNA pool; temperature not stated; high values mean tight binding.
Consider “GGUCACGUCUCAAUCAACUCAUACGAGGGGGGGAAAACCCCUUUACCCUCACUAUCAACAGCUCGCAGUCAAG”, for which the binding signal (log2 fold change) is -0.0113.
Next, “GGUCACGUCUCAAUCAACUCAUCUUCAGGAGUUUACUCCUGUUAUUUCAACAGCUCGCAGUCAAG”: -0.0176.
Next, “GGUCACGUCUCAAUCAACUCUAUCUCAGGAGUUUGCUCCUGCUUAUUCAACAGCUCGCAGUCAAG”: 0.0887; “GGUCACGUCUCAAUCAACUCAUCUCCAGGAGUUUUCUCCUGUAUACUCAACAGCUCGCAGUCAAG”: -0.00572; “GGUCACGUCUCAAUCAACUCUCCCGAGGGGGGGAAAACCCCUUUGCCCUCAUCUUCAACAGCUCGCAGUCAAG”: 0.109.
Next, “GGUCACGUCUCAAUCAACUCUACUCCAGGAGUUUUCUCCUGCAUUCUCAACAGCUCGCAGUCAAG”: -0.138.
Consider “GGUCACGUCUCAAUCAACUCAUCGCCCAGGGAAACCCCUGGUUAAUUCAACAGCUCGCAGUCAAG”, for which the binding signal (log2 fold change) was -0.0787.
Under “GGUCACGUCUCAAUCAACUCCCCAGAGGGGGGGAAAACCCCUUUACCCUCAAAAUCAACAGCUCGCAGUCAAG” stands -0.517; under “GGUCACGUCUCAAUCAACUCAACUCCCAGGGAAACCCCUGGUAUACUCAACAGCUCGCAGUCAAG”, -0.13; under “GGUCACGUCUCAAUCAACUCUACUUCAGGAGUUUUCUCCUGCAAAUUCAACAGCUCGCAGUCAAG”, 0.0993.
Turning to “GGUCACGUCUCAAUCAACUCAAUCGCAGGAGUUUCCUCCUGGUUUUUCAACAGCUCGCAGUCAAG”, the binding signal (log2 fold change) was -0.0683.
Next, “GGUCACGUCUCAAUCAACUCUUCCCCAGGAGUUUUCUCCUGCUUAUUCAACAGCUCGCAGUCAAG”: 0.0205; “GGUCACGUCUCAAUCAACUCCAAAGAGGGGGGGAAAACCCCUUUGCCCUCCAAAUCAACAGCUCGCAGUCAAG”: -0.387.
Next, “GGUCACGUCUCAAUCAACUCAUUUCCCAGGGAAAUCCCUGGUAUACUCAACAGCUCGCAGUCAAG”: 0.00235; “GGUCACGUCUCAAUCAACUCUAUCCCAGGAGUUUACUCCUGUAAUUUCAACAGCUCGCAGUCAAG”: 0.0931; “GGUCACGUCUCAAUCAACUCUUUUUCAGGAGUUUCCUCCUGCAAUUUCAACAGCUCGCAGUCAAG”: -0.102.
In the case of “GGUCACGUCUCAAUCAACUCUCAAGAGGGGGGGAAAACCCCUUUGCCCUCGAAAUCAACAGCUCGCAGUCAAG”, the binding signal (log2 fold change) was -0.383.
Under “GGUCACGUCUCAAUCAACUCUUUCUCCAGGGAAAUCCCUGGUUUUCUCAACAGCUCGCAGUCAAG” stands 0.0165; under “GGUCACGUCUCAAUCAACUCUAUUCCAGGAGUUUACUCCUGUUUUCUCAACAGCUCGCAGUCAAG”, 0.0145.
Under “GGUCACGUCUCAAUCAACUCAAUCCCCAGGGAAACCCCUGGUUUAUUCAACAGCUCGCAGUCAAG” stands -0.111.
Next, “GGUCACGUCUCAAUCAACUCACACGAGGGGGGGAAAACCCCUUUGCCCUCAAUAUCAACAGCUCGCAGUCAAG”: -0.262.
Regarding “GGUCACGUCUCAAUCAACUCAUCUUCCAGGGAAAGCCCUGGUUAUCUCAACAGCUCGCAGUCAAG”, the binding signal (log2 fold change) worked out at 0.0814.
Under “GGUCACGUCUCAAUCAACUCCAUAGAGGGGGGGAAAACCCCUUUGCCCUCCAACUCAACAGCUCGCAGUCAAG” stands -0.237.
For the sequence “GGUCACGUCUCAAUCAACUCAUCUUCCAGGGAAAACCCUGGUAAUUUCAACAGCUCGCAGUCAAG”, the binding signal (log2 fold change) was 0.171.
Next, “GGUCACGUCUCAAUCAACUCAACUUCAGGAGUUUCCUCCUGUAAUCUCAACAGCUCGCAGUCAAG”: -0.0198.
Next, “GGUCACGUCUCAAUCAACUCUUUCUCAGGAGUUUCCUCCUGCUAUUUCAACAGCUCGCAGUCAAG”: -0.0274; “GGUCACGUCUCAAUCAACUCAACUCCCAGGGAAAGCCCUGGUAAUUUCAACAGCUCGCAGUCAAG”: -0.169; “GGUCACGUCUCAAUCAACUCAGUCUCCAGGGAAAUCCCUGGCAUUCUCAACAGCUCGCAGUCAAG”: 0.00506.
Under “GGUCACGUCUCAAUCAACUCUUACGAGGGGGGGAAAACCCCUUUGCCCUCAAUUUCAACAGCUCGCAGUCAAG” stands -0.0436.
For “GGUCACGUCUCAAUCAACUCAACUUCAGGAGUUUCCUCCUGCUUUCUCAACAGCUCGCAGUCAAG”, the binding signal (log2 fold change) came out at 0.231.
Under “GGUCACGUCUCAAUCAACUCAUUCUCCAGGGAAAGCCCUGGCAUUUUCAACAGCUCGCAGUCAAG” stands 0.0333; under “GGUCACGUCUCAAUCAACUCAUCCCCCAGGGAAAACCCUGGUAUUCUCAACAGCUCGCAGUCAAG”, -0.304; under “GGUCACGUCUCAAUCAACUCAUUCUCCAGGGAAAGCCCUGGUUUUCUCAACAGCUCGCAGUCAAG”, -0.109.
Under “GGUCACGUCUCAAUCAACUCUUCGUCCAGGGAAACCCCUGGUAUUUUCAACAGCUCGCAGUCAAG” stands 0.0873; under “GGUCACGUCUCAAUCAACUCAUCUCCAGGAGUUUACUCCUGUUUAUUCAACAGCUCGCAGUCAAG”, -0.0985.
Next, “GGUCACGUCUCAAUCAACUCAAUCUCAGGAGUUUACUCCUGCAAACUCAACAGCUCGCAGUCAAG”: -0.0242; “GGUCACGUCUCAAUCAACUCUUUCCCAGGAGUUUCCUCCUGUAUUUUCAACAGCUCGCAGUCAAG”: 0.194.
In the case of “GGUCACGUCUCAAUCAACUCUUUUCCCAGGGAAAUCCCUGGCAAUUUCAACAGCUCGCAGUCAAG”, the binding signal (log2 fold change) was found to be 0.0515.
For “GGUCACGUCUCAAUCAACUCAAAAGAGGGGGGGAAAACCCCUUUACCCUCACAUUCAACAGCUCGCAGUCAAG”, the binding signal (log2 fold change) is -0.177.
Under “GGUCACGUCUCAAUCAACUCAUUCUCCAGGGAAAACCCUGGCUUUCUCAACAGCUCGCAGUCAAG” stands 0.0843; under “GGUCACGUCUCAAUCAACUCUACUUCCAGGGAAAGCCCUGGUUUACUCAACAGCUCGCAGUCAAG”, 0.0147; under “GGUCACGUCUCAAUCAACUCUUCGUCCAGGGAAAACCCUGGCUAUUUCAACAGCUCGCAGUCAAG”, -0.161.
Under “GGUCACGUCUCAAUCAACUCAUUCCCCAGGGAAAUCCCUGGUUAACUCAACAGCUCGCAGUCAAG” stands -0.269; under “GGUCACGUCUCAAUCAACUCAUUCUCCAGGGAAAUCCCUGGCAUUCUCAACAGCUCGCAGUCAAG”, -0.109.
Next, “GGUCACGUCUCAAUCAACUCAUUUCCAGGAGUUUACUCCUGUUAUCUCAACAGCUCGCAGUCAAG”: 0.184.
Take “GGUCACGUCUCAAUCAACUCAUUCCCCAGGGAAAUCCCUGGUUAAUUCAACAGCUCGCAGUCAAG”: the binding signal (log2 fold change) was found to be 0.0671.
For “GGUCACGUCUCAAUCAACUCUUCGCCCAGGGAAACCCCUGGUAUUUUCAACAGCUCGCAGUCAAG”, the binding signal (log2 fold change) was -0.0467.
Under “GGUCACGUCUCAAUCAACUCUUCGUCAGGAGUUUCCUCCUGUAUACUCAACAGCUCGCAGUCAAG” stands 0.0669; under “GGUCACGUCUCAAUCAACUCAGUCUCCAGGGAAAACCCUGGUAUUUUCAACAGCUCGCAGUCAAG”, -0.158; under “GGUCACGUCUCAAUCAACUCAUUCUCAGGAGUUUGCUCCUGCUAUCUCAACAGCUCGCAGUCAAG”, 0.0748.
Next, “GGUCACGUCUCAAUCAACUCAAUUCCCAGGGAAACCCCUGGUUUUUUCAACAGCUCGCAGUCAAG”: 0.0836; “GGUCACGUCUCAAUCAACUCAAUCUCCAGGGAAAACCCUGGUAUUUUCAACAGCUCGCAGUCAAG”: 0.117; “GGUCACGUCUCAAUCAACUCAACUCCCAGGGAAAACCCUGGCAAUCUCAACAGCUCGCAGUCAAG”: -0.0246.
Under “GGUCACGUCUCAAUCAACUCUUUUCCCAGGGAAAGCCCUGGUAUUUUCAACAGCUCGCAGUCAAG” stands -0.119; under “GGUCACGUCUCAAUCAACUCUACUCCAGGAGUUUUCUCCUGCAAUCUCAACAGCUCGCAGUCAAG”, -0.0977.
As for “GGUCACGUCUCAAUCAACUCUACUUCAGGAGUUUUCUCCUGCUUUUUCAACAGCUCGCAGUCAAG”, the binding signal (log2 fold change) turned out to be 0.12.
Under “GGUCACGUCUCAAUCAACUCUUUUCCCAGGGAAACCCCUGGUUAUUUCAACAGCUCGCAGUCAAG” stands 0.221.
Under “GGUCACGUCUCAAUCAACUCUUUUUCCAGGGAAAUCCCUGGCAAUCUCAACAGCUCGCAGUCAAG” stands 0.038; under “GGUCACGUCUCAAUCAACUCACACGAGGGGGGGAAAACCCCUUUACCCUCCAUUUCAACAGCUCGCAGUCAAG”, -0.0603; under “GGUCACGUCUCAAUCAACUCAUUCCCAGGAGUUUUCUCCUGUUAAGUCAACAGCUCGCAGUCAAG”, 0.0645.
Under “GGUCACGUCUCAAUCAACUCAAUCUCAGGAGUUUCCUCCUGCAAUGUCAACAGCUCGCAGUCAAG” stands 0.194; under “GGUCACGUCUCAAUCAACUCAAUUUCCAGGGAAACCCCUGGCAUAGUCAACAGCUCGCAGUCAAG”, 0.157; under “GGUCACGUCUCAAUCAACUCACAGGAGGGGGGGAAAACCCCUUUACCCUCAAUCUCAACAGCUCGCAGUCAAG”, 0.014.
As to “GGUCACGUCUCAAUCAACUCUUCCCCAGGAGUUUUCUCCUGUUAAUUCAACAGCUCGCAGUCAAG”, the binding signal (log2 fold change) was -0.176.
Next, “GGUCACGUCUCAAUCAACUCACACGAGGGGGGGAAAACCCCUUUGCCCUCAAUCUCAACAGCUCGCAGUCAAG”: -0.119; “GGUCACGUCUCAAUCAACUCUCUAGAGGGGGGGAAAACCCCUUUGCCCUCAAAAUCAACAGCUCGCAGUCAAG”: -0.289.
Next, “GGUCACGUCUCAAUCAACUCAACUUCAGGAGUUUUCUCCUGCUAUUUCAACAGCUCGCAGUCAAG”: 0.167; “GGUCACGUCUCAAUCAACUCCAUAGAGGGGGGGAAAACCCCUUUGCCCUCAACUUCAACAGCUCGCAGUCAAG”: 0.132; “GGUCACGUCUCAAUCAACUCAUUCUCAGGAGUUUUCUCCUGUUUUCUCAACAGCUCGCAGUCAAG”: 0.113.
“GGUCACGUCUCAAUCAACUCAAUCGAGGGGGGGAAAACCCCUUUACCCUCACUCUCAACAGCUCGCAGUCAAG”: the binding signal (log2 fold change) was determined as 0.375.
Under “GGUCACGUCUCAAUCAACUCAUUCCCAGGAGUUUGCUCCUGUAUAUUCAACAGCUCGCAGUCAAG” stands 0.0303; under “GGUCACGUCUCAAUCAACUCUUUCCCCAGGGAAACCCCUGGUAUUUUCAACAGCUCGCAGUCAAG”, -0.139.
Under “GGUCACGUCUCAAUCAACUCAUCGUCAGGAGUUUUCUCCUGUUAACUCAACAGCUCGCAGUCAAG” stands 0.206; under “GGUCACGUCUCAAUCAACUCUUUCUCAGGAGUUUCCUCCUGUAAAUUCAACAGCUCGCAGUCAAG”, -0.171.
